In patent publication US20210024610A1 (Hoffmann-La Roche, published 2021):

Key:
Test in all cases: cell-based or functional assay
[1] = molecular target: T1, human 4-1BB expressed on cells (Jurkat-hu4-1BB-NFκB-luc2 reporter cells; human T cells in PBMC) (human, UniProt Q07011 24-255)
[2] = molecular target: T1, human 4-1BB expressed on cells …; remark: listed apart in the source
[3] = molecular target: T1, human 4-1BB expressed on cells …; design: unit not given beside the values
[4] = molecular target: T1, human 4-1BB expressed on cells …; remark: listed apart in the source

Sequence of UniProt Q07011 (Q07011 24-255): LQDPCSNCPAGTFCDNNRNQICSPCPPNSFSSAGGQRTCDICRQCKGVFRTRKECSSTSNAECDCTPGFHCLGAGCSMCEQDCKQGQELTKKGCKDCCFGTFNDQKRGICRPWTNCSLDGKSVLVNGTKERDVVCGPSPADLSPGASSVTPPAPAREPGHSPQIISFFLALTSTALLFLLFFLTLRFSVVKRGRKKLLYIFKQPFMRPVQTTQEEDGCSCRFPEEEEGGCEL

B1: Her2(PER)-4-1BBL (monovalent anti-Her2(PER) split trimeric 4-1BB ligand Fc (kih) fusion antigen binding molecule containing CH1-CL crossover and charged … (Fc fusion)
heavy: EVQLVESGGGLVQPGGSLRLSCAASGFTFTDYTMDWVRQAPGKGLEWVADVNPNSGGSIYNQRFKGRFTLSVDRSKNTLYLQMNSLRAEDTAVYYCARNLGPSFYFDYWGQGTLVTVSSASTKGPSVFPLAPSSKSTSGGTAALGCLVKDYFPEPVTVSWNSGALTSGVHTFPAVLQSSGLYSLSSVVTVPSSSLGTQTYICNVNHKPSNTKVDKKVEPKSCDKTHTCPPCPAPEAAGGPSVFLFPPKPKDTLMISRTPEVTCVVVDVSHEDPEVKFNWYVDGVEVHNAKTKPREEQYNSTYRVVSVLTVLHQDWLNGKEYKCKVSNKALGAPIEKTISKAKGQPREPQVCTLPPSRDELTKNQVSLSCAVKGFYPSDIAVEWESNGQPENNYKTTPPVLDSDGSFFLVSKLTVDKSRWQQGNVFSCSVMHEALHNHYTQKSLSLSP
light: DIQMTQSPSSLSASVGDRVTITCKASQDVSIGVAWYQQKPGKAPKLLIYSASYRYTGVPSRFSGSGSGTDFTLTISSLQPEDFATYYCQQYYIYPYTFGQGTKVEIKRTVAAPSVFIFPPSDEQLKSGTASVVCLLNNFYPREAKVQWKVDNALQSGNSQESVTEQDSKDSTYSLSSTLTLSKADYEKHKVYACEVTHQGLSSPVTKSFNRGEC
chain 1: REGPELSPDDPAGLLDLRQGMFAQLVAQNVLLIDGPLSWYSDPGLAGVSLTGGLSYKEDTKELVVAKAGVYYVFFQLELRRVVAGEGSGSVSLALHLQPLRSAAGAAALALTVDLPPASSEARNSAFGFQGRLLHLSAGQRLGVHLHTEARARHAWQLTQGATVLGLFRVTPEIPAGLGGGGSGGGGSREGPELSPDDPAGLLDLRQGMFAQLVAQNVLLIDGPLSWYSDPGLAGVSLTGGLSYKEDTKELVVAKAGVYYVFFQLELRRVVAGEGSGSVSLALHLQPLRSAAGAAALALTVDLPPASSEARNSAFGFQGRLLHLSAGQRLGVHLHTEARARHAWQLTQGATVLGLFRVTPEIPAGLGGGGSGGGGSRTVAAPSVFIFPPSDRKLKSGTASVVCLLNNFYPREAKVQWKVDNALQSGNSQESVTEQDSKDSTYSLSSTLTLSKADYEKHKVYACEVTHQGLSSPVTKSFNRGE[here human IgG1 Fc with changes without letters]
chain 2: REGPELSPDDPAGLLDLRQGMFAQLVAQNVLLIDGPLSWYSDPGLAGVSLTGGLSYKEDTKELVVAKAGVYYVFFQLELRRVVAGEGSGSVSLALHLQPLRSAAGAAALALTVDLPPASSEARNSAFGFQGRLLHLSAGQRLGVHLHTEARARHAWQLTQGATVLGLFRVTPEIPAGLGGGGSGGGGSASTKGPSVFPLAPSSKSTSGGTAALGCLVEDYFPEPVTVSWNSGALTSGVHTFPAVLQSSGLYSLSSVVTVPSSSLGTQTYICNVNHKPSNTKVDEKVEPKSC
EC50 PBMC activation assay, % CD25+ CD4, with NCI-N87 cells [1]: 0.02 nM
EC50 PBMC activation assay, % GnzB high CD4, with NCI-N87 cells [1]: 0.01 nM
EC50 PBMC activation assay, % GnzB high CD8, with NCI-N87 cells [1]: 0.02 nM
EC50 PBMC activation assay, % proliferating CD4, with NCI-N87 cells [1]: 0.02 nM
EC50 PBMC activation assay, % proliferating CD8, with NCI-N87 cells [1]: 0.01 nM
EC50 of NFκB-activation-induced Luciferase activity, Jurkat-hu4-1BB-NFκB-luc2 reporter cells, with KPL-4 cells [2]: 0.01 nM
EC50 of NFκB-activation-induced Luciferase activity, Jurkat-hu4-1BB-NFκB-luc2 reporter cells, with NCI-N87 cells [2]: 0.02 nM
EC50 of NFκB-activation-induced Luciferase activity, Jurkat-hu4-1BB-NFκB-luc2 reporter cells, with SK-Br3 cells [2]: 0.01 nM
AUC above background, PBMC activation assay, % CD25+ CD4 [3]: 81
AUC above background, PBMC activation assay, % CD25+ CD8 [3]: 10
AUC above background, PBMC activation assay, % GnzB high CD4 [3]: 55
AUC above background, PBMC activation assay, % GnzB high CD8 [3]: 122
AUC above background, PBMC activation assay, % proliferating CD4 [3]: 25
AUC above background, PBMC activation assay, % proliferating CD8 [3]: 38
EC50 of NFκB-activation-induced Luciferase activity, Jurkat-hu4-1BB-NFκB-luc2 reporter cells, with NCI-N87 cells [4]: 0.03 nM
EC50 of NFκB-activation-induced Luciferase activity, Jurkat-hu4-1BB-NFκB-luc2 reporter cells, with SK-Br3 cells [4]: 0.02 nM

Where two headings read alike, the source gives them in different places.
